± gives the standard deviation. Only a part is listed here, and it is no random draw.
Test system: MIWI (PIWIL1) piRISC loaded with L1MC piRNA (30 nt)
Experiment: pre-steady-state target cleavage rate (min^-1); MIWI and MILI are mouse PIWI proteins and EfPiwi is from a freshwater sponge; tags in brackets are library labels; higher = faster piRNA-guided slicing of the target
Conditions: guide: L1MC piRNA 5'p-UAACUAAAUACUAUGCAAGCUGUAGGUCCU
Method in brief: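 Using HEPES–potassium acetate buffer at 33 °C, 1 nM active affinity-purified piRISC with a single synthetic guide was mixed with 0.1 nM transcribed, DNA-blocked target RNA library for 0–8 or 0–960 min, with or without 500 nM GTSF1 partner protein. Uncleaved targets were sequenced and normalised to depth and to weakly complementary targets, and three trials were pooled with k3 capped at 0.0001 min^-1. A burst-and-steady-state fit gave the pre-steady-state cleavage rate.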

[1] = auxiliary factor: 500 nM mouse GTSF1
[2] = auxiliary factor: none (no GTSF1)

## UCCACCUACAGCUUGGAUAGUAUUUAGAUA
[1]
  pre-steady-state target cleavage rate: 0.319 ± 0.042
[2]
  pre-steady-state target cleavage rate: 0.0137 ± 0.0027

## UGCACGUACAGCUUGCAUAGUAUUUAGUUA
[1]
  pre-steady-state target cleavage rate: 1.26 ± 0.045
[2]
  pre-steady-state target cleavage rate: 0.0736 ± 0.01

## UCCUGGAUCAGCUUGCAUAGUAUUUCGUUA
[1]
  pre-steady-state target cleavage rate: 0.443 ± 0.051
[2]
  pre-steady-state target cleavage rate: 0.0217 ± 0.0049

## UCCUGGAUGACCUUGGAUAGUAUUUAGUUA
[1]
  pre-steady-state target cleavage rate: 0.232 ± 0.023
[2]
  pre-steady-state target cleavage rate: 0.00751 ± 0.0028

## UCGACCUACAGCUUGCAUAGUAUAAAGUUA
[1]
  pre-steady-state target cleavage rate: 0.574 ± 0.035
[2]
  pre-steady-state target cleavage rate: 0.0181 ± 0.0052

## UCCUGGAACAGCUUGCAUAGAAUUUAGAAA
[1]
  pre-steady-state target cleavage rate: 0.162 ± 0.031
[2]
  pre-steady-state target cleavage rate: 0.00707 ± 0.0036

## UCCUGGAUGUCUUUGCAUAGUAUUUAGUUA
[1]
  pre-steady-state target cleavage rate: 0.094 ± 0.015
[2]
  pre-steady-state target cleavage rate: 0.00574 ± 0.0019

## UGGACCUACAGCUUCCAUAGUAUUUAGUUA
[1]
  pre-steady-state target cleavage rate: 0.0563 ± 0.013
[2]
  pre-steady-state target cleavage rate: 0.00426 ± 0.0014

## AGGACCUACAGCUUGAAUAGUAUUUAGUUA
[1]
  pre-steady-state target cleavage rate: 1.44 ± 0.059
[2]
  pre-steady-state target cleavage rate: 0.0532 ± 0.01

## UCCUGGAACAGCUUGCAUAGAAUUAAGUUA
[1]
  pre-steady-state target cleavage rate: 0.16 ± 0.025
[2]
  pre-steady-state target cleavage rate: 0.00614 ± 0.0028

## AGCUCCUACAGCUUGCAUAGUAUUUAGAAA
[1]
  pre-steady-state target cleavage rate: 0.381 ± 0.056
[2]
  pre-steady-state target cleavage rate: 0.00544 ± 0.0029

## UCCUCGUACAGCUUGCAUAGUAUAUAGUUA
[1]
  pre-steady-state target cleavage rate: 0.851 ± 0.036
[2]
  pre-steady-state target cleavage rate: 0.0232 ± 0.0062

## UCCUGGAUGUGCUUGCAUACUAUAUAGUUA
[1]
  pre-steady-state target cleavage rate: 0.00748 ± 0.0044
[2]
  pre-steady-state target cleavage rate: 0.00305 ± 0.0026

## UCCUGGAACAGCUUGCAAAGUUUUUAGUUA
[1]
  pre-steady-state target cleavage rate: 0.267 ± 0.022
[2]
  pre-steady-state target cleavage rate: 0.026 ± 0.0075

## UGGACCUUGAGCUUGCAUAGUAUUUAGUUA
[1]
  pre-steady-state target cleavage rate: 0.98 ± 0.079
[2]
  pre-steady-state target cleavage rate: 0.0437 ± 0.0096

## AGGACCUAGAGCUUGCAUAGUAUUUUGUUA
[1]
  pre-steady-state target cleavage rate: 0.825 ± 0.061
[2]
  pre-steady-state target cleavage rate: 0.0386 ± 0.0083

## UCCUGCUACAGCUGCAUAGUAUUUAGUUA
[1]
  pre-steady-state target cleavage rate: 0.69 ± 0.05
[2]
  pre-steady-state target cleavage rate: 0.00487 ± 0.0021

## AGGACCAACAGCUAGCAUAGUAUUUAGUUA
[1]
  pre-steady-state target cleavage rate: 1.08 ± 0.052
[2]
  pre-steady-state target cleavage rate: 0.038 ± 0.01

## UCCACCUACAGCUUGCAUAGUAUUUUAGUUA
[1]
  pre-steady-state target cleavage rate: 0.779 ± 0.056
[2]
  pre-steady-state target cleavage rate: 0.0197 ± 0.0047

## UCGACCUAAAGCUUGCAUAGUAUUUAGUUA
[1]
  pre-steady-state target cleavage rate: 0.793 ± 0.029
[2]
  pre-steady-state target cleavage rate: 0.0468 ± 0.0088

## UCCUGCUAGAGCUUGCAUACUAUUUAGUUA
[1]
  pre-steady-state target cleavage rate: 0.248 ± 0.03
[2]
  pre-steady-state target cleavage rate: 0.0221 ± 0.0058

## UGGACCAUCAGCUUGCAUAGUAUUUACAAA
[1]
  pre-steady-state target cleavage rate: 0.264 ± 0.032
[2]
  pre-steady-state target cleavage rate: 0.00628 ± 0.0023

## UCCUGCUACAGGUUGCAAAGUAUUUAGUUA
[1]
  pre-steady-state target cleavage rate: 1.11 ± 0.066
[2]
  pre-steady-state target cleavage rate: 0.0219 ± 0.0044

## UCCUGGUAGAGCUUGCAUAGAAUUUAGUUA
[1]
  pre-steady-state target cleavage rate: 0.167 ± 0.019
[2]
  pre-steady-state target cleavage rate: 0.0205 ± 0.0076

## UCCUGCUACAGCUCGCAUAGUAUUUAGUUA
[1]
  pre-steady-state target cleavage rate: 1.14 ± 0.062
[2]
  pre-steady-state target cleavage rate: 0.0391 ± 0.0067

## UCGACCUACUCCUUGCAUAGUAUUUAGUAA
[1]
  pre-steady-state target cleavage rate: 0.472 ± 0.035
[2]
  pre-steady-state target cleavage rate: 0.0187 ± 0.003

## UCCUGGAUCAGCUUGCAUAGAAUUUAGUAA
[1]
  pre-steady-state target cleavage rate: 0.207 ± 0.033
[2]
  pre-steady-state target cleavage rate: 0.0126 ± 0.0049

## AGGACGAUCAGCUUGCAUAGUAUUUACAAA
[1]
  pre-steady-state target cleavage rate: 0.447 ± 0.071
[2]
  pre-steady-state target cleavage rate: 0.00798 ± 0.0029

## UCCACGUAGAGCUUGCAUAGUAUUUAGUUA
[1]
  pre-steady-state target cleavage rate: 0.988 ± 0.041
[2]
  pre-steady-state target cleavage rate: 0.0471 ± 0.0084

## UCCUGCUACAGCUUGCACAGUAUUUAGUUA
[1]
  pre-steady-state target cleavage rate: 0.627 ± 0.029
[2]
  pre-steady-state target cleavage rate: 0.0506 ± 0.0074

## UCCUCCUACAGCUUAGCAUAGUAUUUAGUUA
[1]
  pre-steady-state target cleavage rate: 1.31 ± 0.054
[2]
  pre-steady-state target cleavage rate: 0.0108 ± 0.0023

## UGGACCUACAGGAUGCAUAGUAUUUAGUAA
[1]
  pre-steady-state target cleavage rate: 0.941 ± 0.08
[2]
  pre-steady-state target cleavage rate: 0.01 ± 0.0022

## UCCUGGAUCACCUUGCAUAGUAUUUUGUUA
[1]
  pre-steady-state target cleavage rate: 0.161 ± 0.025
[2]
  pre-steady-state target cleavage rate: 0.00453 ± 0.002

## AGGACCUACAGCUAGCAUAGAAUUUAGUUA
[1]
  pre-steady-state target cleavage rate: 0.423 ± 0.03
[2]
  pre-steady-state target cleavage rate: 0.0103 ± 0.0035

## UCCUGGAUGAGUUUGCAUAGUAUUUAGUUA
[1]
  pre-steady-state target cleavage rate: 0.566 ± 0.063
[2]
  pre-steady-state target cleavage rate: 0.0314 ± 0.0067

## UCCUCCUACAGCUUGCCUAGUAUUUAGUUA
[1]
  pre-steady-state target cleavage rate: 0.966 ± 0.066
[2]
  pre-steady-state target cleavage rate: 0.0224 ± 0.004

## UCCAGCUACAGCUUGGAUAGUAUUUAGUUA
[1]
  pre-steady-state target cleavage rate: 1.31 ± 0.12
[2]
  pre-steady-state target cleavage rate: 0.0456 ± 0.0069

## UCCUCCUACAGCUUGCAAAGUAUAUAGUUA
[1]
  pre-steady-state target cleavage rate: 0.53 ± 0.04
[2]
  pre-steady-state target cleavage rate: 0.00986 ± 0.0025

## UCCUGGAUGUCCUUGCUUAGUAUUUAGUUA
[1]
  pre-steady-state target cleavage rate: 0.00931 ± 0.0036
[2]
  pre-steady-state target cleavage rate: 0.00504 ± 0.0017

## UCCUCCUACUCCUUGCAUAGUAUUUAGAAA
[1]
  pre-steady-state target cleavage rate: 0.265 ± 0.043
[2]
  pre-steady-state target cleavage rate: 0.00404 ± 0.0016

## AGGACCUACAGCUUGCAUAGUAUUAUGUUA
[1]
  pre-steady-state target cleavage rate: 0.47 ± 0.056
[2]
  pre-steady-state target cleavage rate: 0.0327 ± 0.0076

## UCCUCCUACAGCUUGCAUAGUAUUUAGUCUA
[1]
  pre-steady-state target cleavage rate: 0.231 ± 0.044
[2]
  pre-steady-state target cleavage rate: 0.0115 ± 0.0035

## UCCUGGAUGAGCUUGCAUAGUAUAUACUUA
[1]
  pre-steady-state target cleavage rate: 0.0169 ± 0.008
[2]
  pre-steady-state target cleavage rate: 0.00397 ± 0.0027

## AGGACCUACAGCUCUGCAUAGUAUUUAGUUA
[1]
  pre-steady-state target cleavage rate: 1.56 ± 0.1
[2]
  pre-steady-state target cleavage rate: 0.0543 ± 0.014

## UCCUGGAUGUGCUUGGCAUAGUAUUUAGUUA
[1]
  pre-steady-state target cleavage rate: 0.0854 ± 0.02
[2]
  pre-steady-state target cleavage rate: 0.00911 ± 0.0033

## UCGACCAUCAGCUUGCAUAGUAUUUAGUAA
[1]
  pre-steady-state target cleavage rate: 0.904 ± 0.048
[2]
  pre-steady-state target cleavage rate: 0.0427 ± 0.0068

## UCCUGGAUGUGCUUGCAUAGUAUAAUGUUA
[1]
  pre-steady-state target cleavage rate: 0.0735 ± 0.015
[2]
  pre-steady-state target cleavage rate: 0.00815 ± 0.0034

## UCCUGGAACAGCUUGCCAUAGUAUUUAGUUA
[1]
  pre-steady-state target cleavage rate: 0.156 ± 0.016
[2]
  pre-steady-state target cleavage rate: 0.0036 ± 0.0034

## AGGACCUACAGCUUGCAUAGUAUUAUAGUUA
[1]
  pre-steady-state target cleavage rate: 1.05 ± 0.078
[2]
  pre-steady-state target cleavage rate: 0.0707 ± 0.015

## UCCUGGAUGUGCUUGCAUAGAAUUUAGUUA
[1]
  pre-steady-state target cleavage rate: 0.0382 ± 0.0079
[2]
  pre-steady-state target cleavage rate: 0.00918 ± 0.0029

## UGGACCUACAGCUUGCAUAGUAUUUUGAUA
[1]
  pre-steady-state target cleavage rate: 0.255 ± 0.029
[2]
  pre-steady-state target cleavage rate: 0.0162 ± 0.0037

## UCCUGGAACAGCUUGCUUAGUAUUUAGAUA
[1]
  pre-steady-state target cleavage rate: 0.451 ± 0.041
[2]
  pre-steady-state target cleavage rate: 0.0147 ± 0.0045

## UCCUGGUACAGCUUGCAUAGAAUUUAGUUA
[1]
  pre-steady-state target cleavage rate: 0.452 ± 0.083
[2]
  pre-steady-state target cleavage rate: 0.0136 ± 0.0044

## UCCUGGAUGAGCAAGCAUAGUAUUUAGUUA
[1]
  pre-steady-state target cleavage rate: 0.11 ± 0.012
[2]
  pre-steady-state target cleavage rate: 0.00317 ± 0.0017

## AGGACCUAGUGCUUGCAUAGUAUUUACAAA
[1]
  pre-steady-state target cleavage rate: 0.0539 ± 0.011
[2]
  pre-steady-state target cleavage rate: 0.00467 ± 0.0017

## AGGACGUUCAGCUUGCAUAGUAUUUAGUUA
[1]
  pre-steady-state target cleavage rate: 1.35 ± 0.063
[2]
  pre-steady-state target cleavage rate: 0.0669 ± 0.01

## UCCUCCUACAGCUUGCAUAGUAUUUAGUAUA
[1]
  pre-steady-state target cleavage rate: 0.68 ± 0.03
[2]
  pre-steady-state target cleavage rate: 0.0115 ± 0.0035

## UCGACCUACAGCUUGCAUAGUAUUUAUUA
[1]
  pre-steady-state target cleavage rate: 0.224 ± 0.025
[2]
  pre-steady-state target cleavage rate: 0.00303 ± 0.0029

## UCCUGGAUGAGCUUGCUUAGUAUUUUGUUA
[1]
  pre-steady-state target cleavage rate: 0.285 ± 0.022
[2]
  pre-steady-state target cleavage rate: 0.0143 ± 0.0037

## UCCUGGAACACCUUGCAUAGAAUUUAGUUA
[1]
  pre-steady-state target cleavage rate: 0.208 ± 0.051
[2]
  pre-steady-state target cleavage rate: 0.00572 ± 0.0024

Reference: the supplement of paper PMC10338343
